# Data published in PubChem BioAssay.
# The shares of active, inactive and inconclusive entries below differ from those in the screen. Active and inactive are the calls of the source.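 The calls were made as follows: active = cell viability at or below a set limit in both duplicate runs, the limit being the all-compound median minus 4 SD (cut at about 23% in these data, passing the limit was not always enough); inconclusive = no clear call, values can overlap the other calls; inactive = the rest.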
# Assay: viability of HCT116 without oncogenic beta-catenin – human colon tumor cells, pilot screen (AID 823);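 also: 0% = wells killed by 20 µM Hyamine and 100% = untreated DMSO cell wells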
# Conditions: HCT116 beta-catenin knockout viability, CellTiter-Glo, 60 h; at 10 µM; stronger effect = lower value
row,Structure (SMILES),viability
1,Cc1ccc(C(C)NC(=O)c2ccco2)cc1C (stereo not given),inconclusive: 98.9%
2,CCc1c(C)sc(NC(=O)C2CCCCC2C(=O)O)c1C(N)=O (stereo not given),inconclusive: 105%
3,Cc1cc2nc3c(c(=O)n2[nH]1)CCCC3,inconclusive: 99.2%
4,O=C1CC(Nc2ccc(N3CCOCC3)cc2)C(=O)N1c1ccccc1F (stereo not given),inactive: 110%
5,Cc1ccc(S(=O)(=O)Cc2ccc(C(=O)N3CCN(Cc4ccccc4)CC3)o2)cc1,inactive: 97.3%
6,CCOC(=O)N1CCN(C(=O)CN(C2CCCCC2)S(=O)(=O)c2ccc(C)cc2)CC1,inconclusive: 93.6%
7,C/C(CC(O)c1ccc2ccccc2n1)=N/O (stereo not given),inconclusive: 100%
8,CCN(CC)S(=O)(=O)c1ccc2oc(C(=O)NCC3COc4ccccc4O3)c(C)c2c1 (stereo not given),inconclusive: 60.5%
9,O=C(NC1(C(F)(F)F)Oc2ccccc2O1)N1CCCC1,inconclusive: 33.1%
10,CCCCS(=O)CC(CS(=O)CCCC)OC(=O)c1ccc(C)cc1 (stereo not given),inconclusive: 104%
11,COc1ccccc1C(=O)C(O)c1ccccc1OC (stereo not given),inconclusive: 107%
12,COc1ccc(CCNC(=O)CN(c2ccc(OC)c(OC)c2)S(C)(=O)=O)cc1OC,inconclusive: 105%
13,Cc1ccc(S(=O)(=O)NC(=O)Nn2c(C)nnc2C)cc1,inconclusive: 103%
14,C#CCN1C(=O)C(O)(CC(=O)c2ccc3c(c2)OCCO3)c2ccccc21 (stereo not given),inconclusive: 45%
15,COc1ccc(C2C(C(=O)N3CCN(c4ccccc4F)CC3)c3ccccc3C(=O)N2C)cc1 (stereo not given),inconclusive: 77.6%
16,COC(=O)C1=C(C)N(c2ccc(F)cc2)C(=O)C1,inconclusive: 98.8%
17,Cc1cc(N2CCOCC2)nc2ccc(NC(=O)C3CCC(C)CC3)cc12 (stereo not given),inconclusive: 71.7%
18,O=C(NCc1cccc(F)c1)c1noc2c1CCCC2,inconclusive: 26.2%
19,CCOC(=O)c1ccc(NC(=O)c2cccc(S(=O)(=O)N3CCOCC3)c2)cc1,inconclusive: 34.6%
20,CC1(C)CC(=O)CC(C2(O)C(=O)N(Cc3ccccc3)c3ccccc32)O1 (stereo not given),inconclusive: 30.9%

row,Structure (SMILES),viability
1,CCn1cc(SCC(N)=O)c2ccccc21,inactive: 99.1%
2,Cc1ccccc1C(=O)OCn1nnc2ccccc2c1=O,inactive: 88.9%
3,COC(=O)C(C)Sc1nnc(-c2ccncc2)o1 (stereo not given),inconclusive: 108%
4,CCC(C)NC(=O)c1cn(C)c(=O)c2cc(OC)c(OC)cc12 (stereo not given),inconclusive: 100%
5,C=CCn1c(SCc2cccc(C#N)c2)nnc1-c1ccccc1O,inactive: 96.2%
6,CCOC(=O)N1CCN(C(=O)CN(c2cccc(C)c2)S(=O)(=O)c2ccccc2)CC1,inconclusive: 103%
7,COc1ccc(OC)c(NC(=O)C(CC(C)C)NC(=O)C2CCCCC2)c1 (stereo not given),inconclusive: 91.4%
8,COc1ccc(S(=O)(=O)N(CCc2ccccc2)CC(=O)N2CCOCC2)cc1,inconclusive: 96.9%
9,O=C1C2C3C=CC(C3)C2C(=O)N1CCN1CCN(S(=O)(=O)c2ccc3ccccc3c2)CC1 (stereo not given),inconclusive: 85.3%
10,O=C(NCC1COc2ccccc2O1)C1C2C=CC3(CN(Cc4ccccc4Cl)C(=O)C13)O2 (stereo not given),inactive: 84.2%
11,CCCCOC(=O)C(C)Oc1ccc(=O)n(-c2ccccc2)n1 (stereo not given),inactive: 98%
12,O=C(COc1ccc(F)cc1)Nc1nccs1,inactive: 103%
13,Cc1noc(C)c1CSc1ccccc1C(=O)N1CCN(c2ccccc2)CC1,inconclusive: 72.8%
14,O=c1[nH]c(SCc2ccccc2Cl)nc2c1CCC2,inconclusive: 108%
15,C=CCC1(O)C(=O)N2C(=C1C(=O)N1CCOCC1)c1ccccc1CC2(C)C (stereo not given),inconclusive: 94.2%
16,NC(=O)CNC1CC(=O)N(CCc2ccccc2)C1=O (stereo not given),inconclusive: 93.2%
17,CCOc1ccccc1-c1nc(C(N)=O)c2[nH]c(=O)n(-c3ccc(F)cc3)c2n1,inactive: 90.2%
18,COC(=O)CCc1nc2ccccc2[nH]c1=O,inconclusive: 108%
19,CC(C)CC(NC(=O)C1CCCCC1)C(=O)NCc1ccccn1 (stereo not given),inconclusive: 105%
20,Cc1ccc(C(=O)COC(=O)c2ccc(Br)o2)cc1C,inconclusive: 95.8%
